Source: the RNAGym collection of RNA variant scans (doi:10.1073/pnas.2313332121)
Variants at the background level are over-represented here.

B1: TPR 5TU (parent)
chain: GGAUCUUCUCGAUCUAACAAAAAAGACAAAUCUGCCACAAAGCUUGAGAGCAUCUUCGGAUGCAGAGGCGGCAGCCUUCGGUGGCGCGAUAGCGCCAACGUUCUCAACUAUGACACGCAAAACGCGUGCUCCGUUGAAUGGAGUUUAUCAUG

Variants of: B1
Assay: polymerase ribozyme fitness, log enrichment relative to wild type (log ratio); higher = more active; in vitro selection for triplet polymerase activity
Outline: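 PCR was used to build mutant libraries for each subunit of a heterodimeric triplet polymerase ribozyme, which were then transcribed. A single in vitro selection round, in triplicate, used a frozen incubation at −7 °C and recovered extended constructs by gel excision, streptavidin beads and RT-PCR. Fitness is the logarithm of genotype enrichment relative to wild-type enrichment, averaged over replicates with inverse-variance weights. The logarithm is base 2, and after Illumina sequencing only genotypes with ≥10 input reads and ≥1 read per output were kept.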

Polymerase ribozyme fitness (log ratio), ≤ -4.2:
GGAUCUGUUCGAUCUAACAAAAAAGACAAAUCUGCCACAAAGCUUGAGAGCAUCUUCGGAUGCAGAGGCGGCAGCCUUCGGUGGCGCGGUAGCGCCAACAUUCUCAACUAUGACACGCAAAACGCGUGCUCCGAUGAAUGGAGUUUAUCAUG [U7G C8U A89G G100A U134A]
GGAUCUGCUCGAUAUAACAAAAAAGACAAAUCUGCUACAAAGCUUGAGAGCAUCAUCGGAUGCAGAGGAGGCAGCCUUCGAUGGCGCGAUAGCGACAACGUUCUCAACUAUGACACGCAAAACGCGUGCUCCGUUGAAUGGAGUUUAUCUUG [U7G C14A C36U U55A C69A G81A C95A A150U]
GGAUCUGCUCGAUCUAAAAAAAGAGACAAAUCUGCCACAAAGCUUGAGAGCGUCUUCGGAUGCAGAGGCGGCAGCCUUCGGUGGCGCGAUAGAGCCAACGUUCUCAACUAUGACACGCAAAACGCGUGCUCCGUUGAAUGGAGUUUAUCAUU [U7G C18A A23G A52G C93A G152U]
GGAUCUGCUCGAUCUAAGAAAAAAGACAAACCUGCCACAAAGCUUGGGAGCAUCUUCGGAUGCAGAGGCGGCAGCCUUCGGUGGCACGAUAGCGCCAACGUUCUCAUCUAUGACACGCAAAACGCGUGCUCCGUUGAAUGGAGUUUAUCAUG [U7G C18G U31C A47G G86A A107U]
GGAUCUGCUCGAUCUAACAAAAAAGACAAAUCUGCCACAAAGUUUGAGAGAAUCUACGGAUGCAGAGGCGGCAGCCUUCGGUGGCGCGAAAGCGUCAACGUUCUAAACUAUGACACGCAAACCGCGUGCUCCGUUGAUUGGAGUUUAUCAUG [U7G C43U C51A U56A U90A C95U C105A A122C A138U]
GGAUCUGCUCGAUCUAACAAAAAAGACAAAUCUGCCACAAAGCUUGAGAGUAUCUUCGGAUGCAGACGCGGCAGCCUUCGGUGGCGCGAUAGCCCCAACGUUCUCAACUAUGACACGCAAAACGCGUGCUCCGUUGAAUGGAGUUUACCAUG [U7G C51U G67C G94C U148C]
GGAUCUGCUCGAUCUAACAAAAAAGACAAAUCUGCCACAAAGCUUGAGAGCAUCUUCGGAUGCAGAGGCGGCAGACUUCGGUGGGGCGAUAGCGACAACGUUCUCAACUAUGACACGCAAAACGCGUGCUCCGUUGAAUGGAGUUUAUAAUG [U7G C75A C85G C95A C149A]
GGAUCUGCUCGAUCUAACAAAAAAGACAAAUCUGCCACAAAGCUUGAGAGCAUCUUCGGAUGCAGAGGCGGCAGCCUUCGGUGGGGCGAUAGAGCCAACGUUCUCAACUAUGACACGCAAAACGCGUGCUCCGUUGAGUGGAGUUUAUCAUG [U7G C85G C93A A138G]
GGAUCUGCUCGAUCUAACAAAAAAGACAAAUCUGCCACAAAGCUUGAGAGCAUCUUCGGAUGCAGAGGCGGCAGCCUUCGGUGGCGAGAUAGCGCCAACGUCCUCAACUAUGACACGCAAAACGCGUACUCCGUUGAAUGGAGUUUAUCAUG [U7G C87A U102C G128A]
GGAUCUGCUCGAUCUAACAAAAAAGACAAAUCUGCCACAAAGCUUGAGAGCAUCUUCGGAUGCAGAGGCGCCAGCCUUCGGUGGCGCGAUAGCGUCAACGUUCUAAACUAUGACACGCAAAACGCGUGCUCCGUUGAAUGGUGUUUAUCAUG [U7G G71C C95U C105A A142U]
GGAUCUGCUCGAUCUAACAAAAAAGACAAAUCUGCCACAAAGCUUGAGAGCAUCUUCGGAUGCAGAGGCGGCAUCCUUCGGUGGUGCGAUAGCGCCAACGAUCUCAACUAUGACACGCAAAACGCGUGCUCCGUUGAAUGGAGUUUAUGAUG [U7G G74U C85U U101A C149G]
GGAUCUGCACGAUCUAACAAAAAAGACAAAUCUGCCACAAAGCUUGAGAGCUUCUUCGGAUGCAGAGGCGGCAGCCUUCGGUGACGCGAUAGCGCCAACGUUCUCAACUAUGACACGCAAAACGCGUGCUCCGUUGAAUGGAGUUUAUCAUG [U7G U9A A52U G84A]
GGAUCUGCGCGAUCUAACAAAAAAGACAAAUCUGCCACAACGCUUGAGAGUAUCUUCAGAUGCAGAGGUGGCAGCCUUCGGUGGCGCGAUAGUGCCAACGUUCUCAAUUAUGACACGCAAAACGCGUGCUCCGUUGAAUGGAGUUUAUCAUG [U7G U9G A41C C51U G58A C69U C93U C108U]
GGAUCUGCGCGAUCUAACAAAAAAGACAAAUCUGCCACAAAGCUUGAGAGCAUCUUCGGAUGCAGAGGCGGCAGCCUUUGGUGACGCGAUAGCGCCAACGUUCUCAACUAUGAUACGCAAAACGCGUGCUCCGUUGAAUGGAGUUUAUCAUG [U7G U9G C79U G84A C114U]
GGAUCUGCUCGACCUAACAAAAAAGACACAUCUGCCACAAAGCUUGAAAGCAUCAUCGGAUGCAGAGGCGGCGGCCUUCGGUGGCGCGAUAGCGGCAACGUUCCCAACUAUGACACGCAAAACGCGUGCUCCGUUGAAUGGAGUUUAUCAUG [U7G U13C A29C G48A U55A A73G C95G U104C]
GGAUCUGCUCGAUCAAACAAAAAAGACAAAUCUGCCACAAGGCUUGAGAGCAUCUUCGGAUGCAGAGGCGCCAGCCUUCGGUGGCGGGAUAGCGCCAACGUUCUCAACUAUGACACGCAAAACGCGUGCUCCGUUGAAUGGAUAUUAUCAUA [U7G U15A A41G G71C C87G G143U U144A G152A]
GGAUCUGCUCGAUCAAACAAAAAAGACAAAUCUGCCACAAAGCUUGAGAGCAUCUUCGGAUGCAGACGCGGCAGCCUUCGGUAGCGCGAUAGCGCCAACGUUCUCAACUAUGACACGCAAAACGCGUGCUGCGUUGAAUGGAGUUUAUCAUG [U7G U15A G67C G83A C131G]
GGAUCUGCUCGAUCGAACAAAAAUGACAAAUCUGCUACAAAGCUUGAGAGCAUUUACGGAUGCUGAGGCGGCAGCCUUCGGUGGCGCGAUAGCGCCAAUGUUCUCAACUAUGACACGCAAAACGCGUGCUCCGUUGAAUGGAGUUUAUCAUG [U7G U15G A24U C36U C54U U56A A64U C99U]
GGAUCUGCUCGAUCUAACAAAAAAGACAAACCUGCCACAAAGCUUGAGAGCAUCUUCGGAUGCAGAGGCGGCAGCCUUCGGUGGCUCGAUAGCGCCAACGUUCUCAAAUAUGACACGCAAAACGCGUGCUCCGUUGAAUGGAGUUUAUCAUG [U7G U31C G86U C108A]
